Publication PMC9911399, “Two distinct binding modes provide the RNA-binding protein RbFox with extraordinary sequence specificity”
Substitutions are numbered along the chain they refer to; changes in the protein carry UniProt numbers. Some of the results follow.

T1: RBFOX1 RRM (Homo sapiens, UniProt Q9NWB1 109-208)
T1 sequence: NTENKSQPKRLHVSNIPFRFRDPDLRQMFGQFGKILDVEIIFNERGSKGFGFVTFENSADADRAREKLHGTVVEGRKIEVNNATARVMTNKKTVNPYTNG

B1: CCAUAAG (DNA:RNA)
RNA: GGGAGACCGGAAUUCAGAUUGUCCCCAUAAGUUAAAUCCCGUCGUAGCCACCA
DNA 1: CAATCTGAATTCCGGTCTCCC
DNA 2: TGGTGGCTACGACGGGATT
B2: GCACCCG (DNA:RNA)
RNA: B1 RNA with C25G, U28C, A29C, A30C
DNA 1: CAATCTGAATTCCGGTCTCCC
DNA 2: TGGTGGCTACGACGGGATT
B3: ACGGCCG (DNA:RNA)
RNA: B1 RNA with C25A, A27G, U28G, A29C, A30C
DNA 1: CAATCTGAATTCCGGTCTCCC
DNA 2: TGGTGGCTACGACGGGATT
B4: UUUUCCC (DNA:RNA)
RNA: B1 RNA with C25U, C26U, A27U, A29C, A30C, G31C
DNA 1: CAATCTGAATTCCGGTCTCCC
DNA 2: TGGTGGCTACGACGGGATT
B5: GAGGGUA (DNA:RNA)
RNA: GGGAGACCGGAAUUCAGAUUGUCCGAGGGUAUUAAAUCCCGUCGUAGCCACCA
DNA 1: CAATCTGAATTCCGGTCTCCC
DNA 2: TGGTGGCTACGACGGGATT
B6: CGCGGGC (DNA:RNA)
RNA: B5 RNA with G25C, A26G, G27C, U30G, A31C
DNA 1: CAATCTGAATTCCGGTCTCCC
DNA 2: TGGTGGCTACGACGGGATT
B7: UUGUCGG (DNA:RNA)
RNA: B1 RNA with C25U, C26U, A27G, A29C, A30G
DNA 1: CAATCTGAATTCCGGTCTCCC
DNA 2: TGGTGGCTACGACGGGATT
B8: GUCUGGC (DNA:RNA)
RNA: B5 RNA with A26U, G27C, G28U, U30G, A31C
DNA 1: CAATCTGAATTCCGGTCTCCC
DNA 2: TGGTGGCTACGACGGGATT
B9: GACAGCG (DNA:RNA)
RNA: B5 RNA with G27C, G28A, U30C, A31G
DNA 1: CAATCTGAATTCCGGTCTCCC
DNA 2: TGGTGGCTACGACGGGATT
B10: GCAAAAG (DNA:RNA)
RNA: B1 RNA with C25G, U28A
DNA 1: CAATCTGAATTCCGGTCTCCC
DNA 2: TGGTGGCTACGACGGGATT
B11: GGCAUCU (DNA:RNA)
RNA: B5 RNA with A26G, G27C, G28A, G29U, U30C, A31U
DNA 1: CAATCTGAATTCCGGTCTCCC
DNA 2: TGGTGGCTACGACGGGATT
B12: CGGACUC (DNA:RNA)
RNA: B5 RNA with G25C, A26G, G28A, G29C, A31C
DNA 1: CAATCTGAATTCCGGTCTCCC
DNA 2: TGGTGGCTACGACGGGATT
B13: UCGGAUC (DNA:RNA)
RNA: B5 RNA with G25U, A26C, G29A, A31C
DNA 1: CAATCTGAATTCCGGTCTCCC
DNA 2: TGGTGGCTACGACGGGATT
B14: CCGAGUU (DNA:RNA)
RNA: B5 RNA with G25C, A26C, G28A, A31U
DNA 1: CAATCTGAATTCCGGTCTCCC
DNA 2: TGGTGGCTACGACGGGATT
B15: UGAAGAC (DNA:RNA)
RNA: B1 RNA with C25U, C26G, U28A, A29G, G31C
DNA 1: CAATCTGAATTCCGGTCTCCC
DNA 2: TGGTGGCTACGACGGGATT
B16: UCUUAGG (DNA:RNA)
RNA: B1 RNA with C25U, A27U, A30G
DNA 1: CAATCTGAATTCCGGTCTCCC
DNA 2: TGGTGGCTACGACGGGATT
B17: UGUUUAC (DNA:RNA)
RNA: B1 RNA with C25U, C26G, A27U, A29U, G31C
DNA 1: CAATCTGAATTCCGGTCTCCC
DNA 2: TGGTGGCTACGACGGGATT
B18: GGAUCCA (DNA:RNA)
RNA: B1 RNA with C25G, C26G, A29C, A30C, G31A
DNA 1: CAATCTGAATTCCGGTCTCCC
DNA 2: TGGTGGCTACGACGGGATT
B19: GAUAUGG (DNA:RNA)
RNA: B5 RNA with G27U, G28A, G29U, U30G, A31G
DNA 1: CAATCTGAATTCCGGTCTCCC
DNA 2: TGGTGGCTACGACGGGATT
B20: CCCUAAA (DNA:RNA)
RNA: B1 RNA with A27C, G31A
DNA 1: CAATCTGAATTCCGGTCTCCC
DNA 2: TGGTGGCTACGACGGGATT
B21: CGGAGCA (DNA:RNA)
RNA: B5 RNA with G25C, A26G, G28A, U30C
DNA 1: CAATCTGAATTCCGGTCTCCC
DNA 2: TGGTGGCTACGACGGGATT
B22: AGCGGUG (DNA:RNA)
RNA: B5 RNA with G25A, A26G, G27C, A31G
DNA 1: CAATCTGAATTCCGGTCTCCC
DNA 2: TGGTGGCTACGACGGGATT
B23: CCACGGU (DNA:RNA)
RNA: B1 RNA with U28C, A29G, A30G, G31U
DNA 1: CAATCTGAATTCCGGTCTCCC
DNA 2: TGGTGGCTACGACGGGATT
B24: UAGGCUU (DNA:RNA)
RNA: B5 RNA with G25U, G29C, A31U
DNA 1: CAATCTGAATTCCGGTCTCCC
DNA 2: TGGTGGCTACGACGGGATT
B25: AAUCGUC (DNA:RNA)
RNA: B5 RNA with G25A, G27U, G28C, A31C
DNA 1: CAATCTGAATTCCGGTCTCCC
DNA 2: TGGTGGCTACGACGGGATT
B26: CCUUAGU (DNA:RNA)
RNA: B1 RNA with A27U, A30G, G31U
DNA 1: CAATCTGAATTCCGGTCTCCC
DNA 2: TGGTGGCTACGACGGGATT
B27: UAAGGAG (DNA:RNA)
RNA: B1 RNA with C25U, C26A, U28G, A29G
DNA 1: CAATCTGAATTCCGGTCTCCC
DNA 2: TGGTGGCTACGACGGGATT
B28: CCCAGCA (DNA:RNA)
RNA: B1 RNA with A27C, U28A, A29G, A30C, G31A
DNA 1: CAATCTGAATTCCGGTCTCCC
DNA 2: TGGTGGCTACGACGGGATT
B29: ACGAUCA (DNA:RNA)
RNA: B5 RNA with G25A, A26C, G28A, G29U, U30C
DNA 1: CAATCTGAATTCCGGTCTCCC
DNA 2: TGGTGGCTACGACGGGATT
B30: GGGAAAA (DNA:RNA)
RNA: B5 RNA with A26G, G28A, G29A, U30A
DNA 1: CAATCTGAATTCCGGTCTCCC
DNA 2: TGGTGGCTACGACGGGATT
B31: UAAGAGG (DNA:RNA)
RNA: B1 RNA with C25U, C26A, U28G, A30G
DNA 1: CAATCTGAATTCCGGTCTCCC
DNA 2: TGGTGGCTACGACGGGATT

biological target: T1, RBFOX1 RRM; assay: EMSA; HiTS-Eq, 1 nM pool, 10 min; buffer printed only for the single-RNA assays: 10 mM Tris pH 7.5, 150 mM NaCl, 3.4 mM EDTA, 0.001% NP-40, 30 C; settings: tags: His6 N-terminal (pET28a); label: 5' 32P
Outline: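 A pool of RNA with 7 randomized nucleotides, 5′-radiolabelled and with DNA-annealed flanks, was equilibrated at 1 nM for 10 min in 50 µL with purified RbFox RRM, wild type or mutant, across increasing protein concentrations. Free RNA was separated by 8% native PAGE, excised, reverse-transcribed, barcoded by PCR and sequenced. Relative association constants were obtained from read-count changes of each RNA species versus the control reaction and normalised to the cognate motif.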

Row | Binder | binding signal
1 | B1 | 0.00746 KA relative to UGCAUGU
2 | B2 | 0.00754 KA relative to UGCAUGU
3 | B3 | 0.016 KA relative to UGCAUGU
4 | B4 | 0.00684 KA relative to UGCAUGU
5 | B5 | 0.0154 KA relative to UGCAUGU
6 | B6 | 0.00483 KA relative to UGCAUGU
7 | B7 | 0.0235 KA relative to UGCAUGU
8 | B8 | 0.0161 KA relative to UGCAUGU
9 | B9 | 0.0141 KA relative to UGCAUGU
10 | B10 | 0.00442 KA relative to UGCAUGU
11 | B11 | 0.0161 KA relative to UGCAUGU
12 | B12 | 0.00791 KA relative to UGCAUGU
13 | B13 | 0.0104 KA relative to UGCAUGU
14 | B14 | 0.00981 KA relative to UGCAUGU
15 | B15 | 0.0147 KA relative to UGCAUGU
16 | B16 | 0.00965 KA relative to UGCAUGU

Row | Binder | binding signal
17 | B17 | 0.0167 KA relative to UGCAUGU
18 | B18 | 0.00197 KA relative to UGCAUGU
19 | B19 | 0.0167 KA relative to UGCAUGU
20 | B20 | 0.00711 KA relative to UGCAUGU
21 | B21 | 0.0212 KA relative to UGCAUGU
22 | B22 | 0.0201 KA relative to UGCAUGU
23 | B23 | 0.00645 KA relative to UGCAUGU
24 | B24 | 0.0145 KA relative to UGCAUGU
25 | B25 | 0.00708 KA relative to UGCAUGU
26 | B26 | 0.00902 KA relative to UGCAUGU
27 | B27 | 0.00478 KA relative to UGCAUGU
28 | B28 | 0.00339 KA relative to UGCAUGU
29 | B29 | 0.00156 KA relative to UGCAUGU
30 | B30 | 0.0234 KA relative to UGCAUGU
31 | B31 | 0.00536 KA relative to UGCAUGU
